In the supplement of paper PMC3334620:
The full ranking holds about 33,000 sequences; the median of “E-score (-0.5 to 0.5)” is about -0.021, and the highest 2% start at about 0.32. Some of the results follow.

molecular target: T1, Zap1 (UniProt P47043); experiment: PBM E-score (8-mer binding enrichment) (E-score (-0.5 to 0.5)); higher = stronger / more preferred TF binding; most listed sequences are background and not binding sites; details: protein concentration: 200 nM; construct: GST-full length
T1 sequence: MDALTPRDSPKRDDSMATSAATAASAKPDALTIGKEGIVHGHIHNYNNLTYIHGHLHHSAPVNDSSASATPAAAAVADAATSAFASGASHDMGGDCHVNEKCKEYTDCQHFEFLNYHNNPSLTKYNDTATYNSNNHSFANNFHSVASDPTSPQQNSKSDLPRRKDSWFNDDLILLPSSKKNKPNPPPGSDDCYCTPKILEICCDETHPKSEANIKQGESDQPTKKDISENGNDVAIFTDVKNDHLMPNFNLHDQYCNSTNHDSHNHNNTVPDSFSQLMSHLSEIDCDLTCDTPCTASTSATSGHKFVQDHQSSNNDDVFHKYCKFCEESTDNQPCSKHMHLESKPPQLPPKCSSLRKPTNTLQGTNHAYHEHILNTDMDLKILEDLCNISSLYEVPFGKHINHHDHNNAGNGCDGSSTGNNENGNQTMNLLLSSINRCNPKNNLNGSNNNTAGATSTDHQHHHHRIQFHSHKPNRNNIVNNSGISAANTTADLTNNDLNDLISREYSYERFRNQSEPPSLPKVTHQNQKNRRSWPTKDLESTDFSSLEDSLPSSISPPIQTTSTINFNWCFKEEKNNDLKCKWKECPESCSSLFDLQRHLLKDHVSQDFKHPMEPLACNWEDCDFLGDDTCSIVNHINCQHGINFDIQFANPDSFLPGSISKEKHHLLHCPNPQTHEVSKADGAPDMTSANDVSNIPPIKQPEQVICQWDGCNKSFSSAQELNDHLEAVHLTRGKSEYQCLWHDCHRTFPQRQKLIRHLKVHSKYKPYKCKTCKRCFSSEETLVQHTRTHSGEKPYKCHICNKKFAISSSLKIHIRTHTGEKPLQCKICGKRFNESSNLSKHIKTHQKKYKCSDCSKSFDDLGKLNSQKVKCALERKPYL
Method: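 Universal 'all 10-mer' protein binding microarrays (Agilent AMADID 015681) probed with GST-tagged S. cerevisiae TFs (full-length or DBD) made by in vitro transcription/translation (PURExpress), about 100-200 nM. Bound TF was detected with fluorescent anti-GST. Each ungapped 8-mer (which stands for itself and its reverse complement) is scored by the PBM enrichment score (E-score), a modified Wilcoxon-Mann-Whitney statistic from -0.5 to +0.5, computed with the Universal PBM Analysis Suite. Scale: above 0.35 generally sequence-specific binding.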

Sequence | PBM E-score
TCTCTGCA | -0.00433
CGGGGATA | 0.00971
CCACATCG | 0.0835
AAGTTGTA | 0.112
CGATTATC | -0.0531
AAACAACA | 0.0829
ATAATTTG | 0.164
ACGCCACC | -0.144
TCTGAAGA | -0.202
CGCTGAGC | -0.355
CCTACGAC | -0.0151
TCGTAAAA | 0.0905
ACACGGCC | -0.077
CCAACCAA | 0.00471
AGGCGGTG | -0.0271
CAGCCCTC | -0.196
CCTCTGCA | -0.0993
ACTAGCCG | -0.177
TCATGCCA | -0.126
CTATGGCA | -0.0888
CTCTCCAA | -0.0435
ATGGCACA | -0.0739

Sequence | PBM E-score
CCGTTGAG | -0.184
TCTTTTAA | 0.195
ACCGTAAG | 0.101
CCGCGGGA | 0.0216
CAAAAGTA | 0.16
AAGTCTCG | -0.0214
CCGGAGGA | -0.228
ATGGGCTA | 0.128
ACTAACTA | 0.0988
AGTTGGGC | -0.094
GGTTTTTA | 0.243
GACCGAAA | 0.117
AGTCTGAC | -0.0587
GATGGCAC | -0.235
AAAACTGA | 0.0781
CGCGACCA | 0.213
GGTGGGTA | 0.233
ATCCTTCG | -0.0734
CACGATTA | 0.0273
ACTCGAAT | -0.0228
CGTAGCGA | -0.251
ATTTTGTA | 0.254

Sequence | PBM E-score
CACACGAG | -0.0928
AGATTATA | 0.0691
AAACACGA | 0.14
ATTCTCCG | -0.164
CAGCTTCA | -0.0747
TCAGCGAA | -0.107
ATTGCGGA | 0.16
CCGCAAGG | 0.0916
CTAACGCA | -0.00926
GAGTCCAC | -0.0624
GCGAGGCA | -0.138
TATGAACA | 0.168
AAGACGCT | -0.191
ATTTAATA | 0.21
AAATGGAA | 0.0613
AAGAAGCA | -0.0504
GCGCTACC | 0.134
TTATCAAA | 0.2
CTAATCGC | -0.0671
CGAGAAAA | 0.0682
CAGCCACC | -0.096
GTGAGGTA | 0.169

Sequence | PBM E-score
CTCAGACC | -0.0198
AGTAATAT | 0.178
CACAAAAG | 0.215
CAGGGCTC | -0.25
CTGTCAGA | -0.0782
CCTCGACA | -0.0199
CTACAGTA | 0.0671
TAAGATGA | -0.125
ATCCGTAG | -0.191
CTGCAATC | -0.0386
GACAATAC | 0.162
AGTCCGAC | -0.121
AGAACGGA | 0.032
ATGGAGAA | 0.106
GGAAATAC | -0.0534
AGCGTTAC | 0.0246
CCCCAGAC | -0.114
ACGCAACG | 0.0875
ATATAGAC | -0.011
CACCGTAA | 0.196
